From the supplement of paper PMC12230231

Each sequence was assayed on SIVsab (simian immunodeficiency virus of sabaeus monkeys), single-cycle GFP reporter, in CRFK cells (assay: enrichment among uninfected cells over input (fold); higher = stronger restriction). Conditions: library: human / rhesus combinations.
Experimental: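 Pools of CRFK cells expressing variants of the TRIM5α v1 loop were challenged with the single-cycle reporter, sorted by GFP and sequenced; mean of two replicates.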

Row | Sequence | enrichment
1 | MASGILVNVKEEVTCPICLELLTQPLSLDCGHSFCQACLTANHKKSMLDKGESSCPVCRISYQPENIRPNRHVANIVEKLREVKLSPEGQKVDHCARHGEKLLLFCQEDGKVICWLCERSQEHRGHHTFLTEEVAREYQVKLQAALEMLRQKQQEAEELEADIREEKASWKTQIQYDKTNVLADFEQLRDILDWEESNELQNLEKEEEDILKSLTNSETEMVQQTQSLRELISDLEHRLQGSVMELLQGVDGVIKRTENVTLKKPETFPKNQRRVFRAPDLKGMLEVFRELTDVRRYWVDVTVAPNNISCAVISEDKRQVSSPKPQIIYGARGTRYTFQSFVNFNYCTGILGSQSITSGKHYWEVDVSKKTAWILGVCAGFQPDAMCNIEKNENYQPKYGYWVIGLEEGVKCSAFQDSSFHTPSVPFIVPLSVIICPDRVGVFLDYEACTVSFFNITNHGFLIYKFSHCSFSQPVFPYLNPRKCGVPMTLCSPSS [human TRIM5α, 330-340 = GARGTRYTFQSFV] | 0.268 ± 0.1
2 | MASGILVNVKEEVTCPICLELLTQPLSLDCGHSFCQACLTANHKKSMLDKGESSCPVCRISYQPENIRPNRHVANIVEKLREVKLSPEGQKVDHCARHGEKLLLFCQEDGKVICWLCERSQEHRGHHTFLTEEVAREYQVKLQAALEMLRQKQQEAEELEADIREEKASWKTQIQYDKTNVLADFEQLRDILDWEESNELQNLEKEEEDILKSLTNSETEMVQQTQSLRELISDLEHRLQGSVMELLQGVDGVIKRTENVTLKKPETFPKNQRRVFRAPDLKGMLEVFRELTDVRRYWVDVTVAPNNISCAVISEDKRQVSSPKPQIIYQARGTRYTFQSLTNFNYCTGILGSQSITSGKHYWEVDVSKKTAWILGVCAGFQPDAMCNIEKNENYQPKYGYWVIGLEEGVKCSAFQDSSFHTPSVPFIVPLSVIICPDRVGVFLDYEACTVSFFNITNHGFLIYKFSHCSFSQPVFPYLNPRKCGVPMTLCSPSS [human TRIM5α, 330-340 = QARGTRYTFQSLT] | 0.0806 ± 0.051
3 | MASGILVNVKEEVTCPICLELLTQPLSLDCGHSFCQACLTANHKKSMLDKGESSCPVCRISYQPENIRPNRHVANIVEKLREVKLSPEGQKVDHCARHGEKLLLFCQEDGKVICWLCERSQEHRGHHTFLTEEVAREYQVKLQAALEMLRQKQQEAEELEADIREEKASWKTQIQYDKTNVLADFEQLRDILDWEESNELQNLEKEEEDILKSLTNSETEMVQQTQSLRELISDLEHRLQGSVMELLQGVDGVIKRTENVTLKKPETFPKNQRRVFRAPDLKGMLEVFRELTDVRRYWVDVTVAPNNISCAVISEDKRQVSSPKPQIIYQARGTLYQSFVNFNYCTGILGSQSITSGKHYWEVDVSKKTAWILGVCAGFQPDAMCNIEKNENYQPKYGYWVIGLEEGVKCSAFQDSSFHTPSVPFIVPLSVIICPDRVGVFLDYEACTVSFFNITNHGFLIYKFSHCSFSQPVFPYLNPRKCGVPMTLCSPSS [human TRIM5α, 330-340 = QARGTLYQSFV] | 0.00573 ± 0.0017
4 | MASGILVNVKEEVTCPICLELLTQPLSLDCGHSFCQACLTANHKKSMLDKGESSCPVCRISYQPENIRPNRHVANIVEKLREVKLSPEGQKVDHCARHGEKLLLFCQEDGKVICWLCERSQEHRGHHTFLTEEVAREYQVKLQAALEMLRQKQQEAEELEADIREEKASWKTQIQYDKTNVLADFEQLRDILDWEESNELQNLEKEEEDILKSLTNSETEMVQQTQSLRELISDLEHRLQGSVMELLQGVDGVIKRTENVTLKKPETFPKNQRRVFRAPDLKGMLEVFRELTDVRRYWVDVTVAPNNISCAVISEDKRQVSSPKPQIIYGARGTRFPSLTNFNYCTGILGSQSITSGKHYWEVDVSKKTAWILGVCAGFQPDAMCNIEKNENYQPKYGYWVIGLEEGVKCSAFQDSSFHTPSVPFIVPLSVIICPDRVGVFLDYEACTVSFFNITNHGFLIYKFSHCSFSQPVFPYLNPRKCGVPMTLCSPSS [human TRIM5α, 330-340 = GARGTRFPSLT] | 0.0839 ± 0.1
5 | MASGILVNVKEEVTCPICLELLTQPLSLDCGHSFCQACLTANHKKSMLDKGESSCPVCRISYQPENIRPNRHVANIVEKLREVKLSPEGQKVDHCARHGEKLLLFCQEDGKVICWLCERSQEHRGHHTFLTEEVAREYQVKLQAALEMLRQKQQEAEELEADIREEKASWKTQIQYDKTNVLADFEQLRDILDWEESNELQNLEKEEEDILKSLTNSETEMVQQTQSLRELISDLEHRLQGSVMELLQGVDGVIKRTENVTLKKPETFPKNQRRVFRAPDLKGMLEVFRELTDVRRYWVDVTVAPNNISCAVISEDKRQVSSPKPQIIYQAPGTRFTFQSLVNFNYCTGILGSQSITSGKHYWEVDVSKKTAWILGVCAGFQPDAMCNIEKNENYQPKYGYWVIGLEEGVKCSAFQDSSFHTPSVPFIVPLSVIICPDRVGVFLDYEACTVSFFNITNHGFLIYKFSHCSFSQPVFPYLNPRKCGVPMTLCSPSS [human TRIM5α, 330-340 = QAPGTRFTFQSLV] | 0.106 ± 0.075
6 | MASGILVNVKEEVTCPICLELLTQPLSLDCGHSFCQACLTANHKKSMLDKGESSCPVCRISYQPENIRPNRHVANIVEKLREVKLSPEGQKVDHCARHGEKLLLFCQEDGKVICWLCERSQEHRGHHTFLTEEVAREYQVKLQAALEMLRQKQQEAEELEADIREEKASWKTQIQYDKTNVLADFEQLRDILDWEESNELQNLEKEEEDILKSLTNSETEMVQQTQSLRELISDLEHRLQGSVMELLQGVDGVIKRTENVTLKKPETFPKNQRRVFRAPDLKGMLEVFRELTDVRRYWVDVTVAPNNISCAVISEDKRQVSSPKPQIIYGARGTLYTFPTFVNFNYCTGILGSQSITSGKHYWEVDVSKKTAWILGVCAGFQPDAMCNIEKNENYQPKYGYWVIGLEEGVKCSAFQDSSFHTPSVPFIVPLSVIICPDRVGVFLDYEACTVSFFNITNHGFLIYKFSHCSFSQPVFPYLNPRKCGVPMTLCSPSS [human TRIM5α, 330-340 = GARGTLYTFPTFV] | 0.198 ± 0.28

Same assay, conditions: library: insertions and deletions

Row | Sequence | enrichment
7 | MASGILVNVKEEVTCPICLELLTQPLSLDCGHSFCQACLTANHKKSMLDKGESSCPVCRISYQPENIRPNRHVANIVEKLREVKLSPEGQKVDHCARHGEKLLLFCQEDGKVICWLCERSQEHRGHHTFLTEEVAREYQVKLQAALEMLRQKQQEAEELEADIREEKASWKTQIQYDKTNVLADFEQLRDILDWEESNELQNLEKEEEDILKSLTNSETEMVQQTQSLRELISDLEHRLQGSVMELLQGVDGVIKRTENVTLKKPETFPKNQRRVFRAPDLKGMLEVFRELTDVRRYWVDVTVAPNNISCAVISEDKRQVSSPKPQIIYGARGTRYQTFVTRYQTFVNFNYCTGILGSQSITSGKHYWEVDVSKKTAWILGVCAGFQPDAMCNIEKNENYQPKYGYWVIGLEEGVKCSAFQDSSFHTPSVPFIVPLSVIICPDRVGVFLDYEACTVSFFNITNHGFLIYKFSHCSFSQPVFPYLNPRKCGVPMTLCSPSS [human TRIM5α, 7-codon duplication at 334] | 0.00179 ± 0.0015
8 | MASGILVNVKEEVTCPICLELLTQPLSLDCGHSFCQACLTANHKKSMLDKGESSCPVCRISYQPENIRPNRHVANIVEKLREVKLSPEGQKVDHCARHGEKLLLFCQEDGKVICWLCERSQEHRGHHTFLTEEVAREYQVKLQAALEMLRQKQQEAEELEADIREEKASWKTQIQYDKTNVLADFEQLRDILDWEESNELQNLEKEEEDILKSLTNSETEMVQQTQSLRELISDLEHRLQGSVMELLQGVDGVIKRTENVTLKKPETFPKNQRRVFRAPDLKGMLEVFRELTDVRRYWVDVTVAPNNISCAVISEDKRQVSSPKPQIRYQTFVNFNYCTGILGSQSITSGKHYWEVDVSKKTAWILGVCAGFQPDAMCNIEKNENYQPKYGYWVIGLEEGVKCSAFQDSSFHTPSVPFIVPLSVIICPDRVGVFLDYEACTVSFFNITNHGFLIYKFSHCSFSQPVFPYLNPRKCGVPMTLCSPSS [human TRIM5α, 7-codon deletion at 328] | 0.937 ± 0.4
9 | MASGILVNVKEEVTCPICLELLTQPLSLDCGHSFCQACLTANHKKSMLDKGESSCPVCRISYQPENIRPNRHVANIVEKLREVKLSPEGQKVDHCARHGEKLLLFCQEDGKVICWLCERSQEHRGHHTFLTEEVAREYQVKLQAALEMLRQKQQEAEELEADIREEKASWKTQIQYDKTNVLADFEQLRDILDWEESNELQNLEKEEEDILKSLTNSETEMVQQTQSLRELISDLEHRLQGSVMELLQGVDGVIKRTENVTLKKPETFPKNQRRVFRAPDLKGMLEVFRELTDVRRYWVDVTVAPNNISCAVISEDKRQVSSPKPQIIYGARGTRYYGARGTRYQTFVNFNYCTGILGSQSITSGKHYWEVDVSKKTAWILGVCAGFQPDAMCNIEKNENYQPKYGYWVIGLEEGVKCSAFQDSSFHTPSVPFIVPLSVIICPDRVGVFLDYEACTVSFFNITNHGFLIYKFSHCSFSQPVFPYLNPRKCGVPMTLCSPSS [human TRIM5α, 8-codon duplication at 329] | 0.473 ± 0.4
10 | MASGILVNVKEEVTCPICLELLTQPLSLDCGHSFCQACLTANHKKSMLDKGESSCPVCRISYQPENIRPNRHVANIVEKLREVKLSPEGQKVDHCARHGEKLLLFCQEDGKVICWLCERSQEHRGHHTFLTEEVAREYQVKLQAALEMLRQKQQEAEELEADIREEKASWKTQIQYDKTNVLADFEQLRDILDWEESNELQNLEKEEEDILKSLTNSETEMVQQTQSLRELISDLEHRLQGSVMELLQGVDGVIKRTENVTLKKPETFPKNQRRVFRAPDLKGMLEVFRELTDVRRYWVDVTVAPNNISCAVISEDKRQVSSPKPQIIYGARGTRYQTFVTGILGSQSITSGKHYWEVDVSKKTAWILGVCAGFQPDAMCNIEKNENYQPKYGYWVIGLEEGVKCSAFQDSSFHTPSVPFIVPLSVIICPDRVGVFLDYEACTVSFFNITNHGFLIYKFSHCSFSQPVFPYLNPRKCGVPMTLCSPSS [human TRIM5α, 5-codon deletion at 341] | 1.89 ± 2
11 | MASGILVNVKEEVTCPICLELLTQPLSLDCGHSFCQACLTANHKKSMLDKGESSCPVCRISYQPENIRPNRHVANIVEKLREVKLSPEGQKVDHCARHGEKLLLFCQEDGKVICWLCERSQEHRGHHTFLTEEVAREYQVKLQAALEMLRQKQQEAEELEADIREEKASWKTQIQYDKTNVLADFEQLRDILDWEESNELQNLEKEEEDILKSLTNSETEMVQQTQSLRELISDLEHRLQGSVMELLQGVDGVIKRTENVTLKKPETFPKNQRRVFRAPDLKGMLEVFRELTDVRRYWVDVTVAPNNISCAVISEDKRQVSSPKPGTRYQTFVNFNYCTGILGSQSITSGKHYWEVDVSKKTAWILGVCAGFQPDAMCNIEKNENYQPKYGYWVIGLEEGVKCSAFQDSSFHTPSVPFIVPLSVIICPDRVGVFLDYEACTVSFFNITNHGFLIYKFSHCSFSQPVFPYLNPRKCGVPMTLCSPSS [human TRIM5α, 7-codon deletion at 326] | 1.46 ± 0.23
12 | MASGILVNVKEEVTCPICLELLTQPLSLDCGHSFCQACLTANHKKSMLDKGESSCPVCRISYQPENIRPNRHVANIVEKLREVKLSPEGQKVDHCARHGEKLLLFCQEDGKVICWLCERSQEHRGHHTFLTEEVAREYQVKLQAALEMLRQKQQEAEELEADIREEKASWKTQIQYDKTNVLADFEQLRDILDWEESNELQNLEKEEEDILKSLTNSETEMVQQTQSLRELISDLEHRLQGSVMELLQGVDGVIKRTENVTLKKPETFPKNQRRVFRAPDLKGMLEVFRELTDVRRYWVDVTVAPNNISCAVISEDKRQVSSPKPQIIYGARGTRYQTFVNFNYCTGIYCTGILGSQSITSGKHYWEVDVSKKTAWILGVCAGFQPDAMCNIEKNENYQPKYGYWVIGLEEGVKCSAFQDSSFHTPSVPFIVPLSVIICPDRVGVFLDYEACTVSFFNITNHGFLIYKFSHCSFSQPVFPYLNPRKCGVPMTLCSPSS [human TRIM5α, 5-codon duplication at 344] | 0.344 ± 0.48

± gives the standard deviation of the averaged measurements. Restriction of a single-cycle SIVsab GFP reporter by TRIM5α v1-loop variants in CRFK cells. Human variants: read share among cells still uninfected after two challenges over input, higher = gained restriction. Rhesus variants: share among infected cells over input, higher = lost restriction. Reporter dose not given per row. No active / inactive call per row; the paper calls a change when both replicates lie above its controls (mean + 2 SD of stop or wild-type variants, or the top frameshift score). Residues outside the varied loop are taken from Swiss-Prot. The paper reads the human single-substitution scores as noise; they and the rhesus combinations repeat poorly (rank correlation 0.3 to 0.4), indel scores repeat only for the top variants, rhesus substitutions well (0.9).
